Measured values taken from PubChem BioAssay AID1457 (National Center for Advancing Translational Sciences (NCATS), 2008).
Screen size: about 210,000 compounds; about 730 (0.35%) were called active. This list was built around the results that the source calls inconclusive (neither active nor inactive); the mix of calls is not that of the screen. The call rests on the fitted dose curve; in most records, active means well fitted inhibition curve with a large enough effect; inconclusive means small, poorly fitted or top-dose-only effect; inactive means no such curve, though single readings can be large or run the other way. Potencies beside an inconclusive call are fits to weak or partial responses and may not hold up.

Assay: qHTS Assay for Identifying the Cell-Membrane Permeable IMPase Inhibitors: Potentiation with Lithium; further: nearly all actives have a fitted effect of over 50% in size
Details: CHO-M1 cells, IP1 TR-FRET (IP-One), carbachol + lithium; series mostly up to 59.4 µM
Procedure, shortened: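 CHO-M1, 2000 cells/well, 16–30 h culture; cpd + low Li+, 30 min 37C; lysis with d2-IP1/Eu-anti-IP1 Ab, 10 min RT; TR-FRET 665/620 ratio and 620 channel; AC50 via Hill.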
Potency means the concentration at half of the fitted maximal effect.

Potency, inactive:
O=C1NCCCN1Cc1ccc(F)cc1
O=C(O)C1CC=CCC1C(=O)Nc1ccc2c(c1)OCCO2 (stereo unspecified)
Cc1cc(C(F)F)n2nc(C(=O)Nc3sc4c(c3C#N)CCC4)nc2n1
Cc1cc(Cl)cc(C)c1OCCCCN1CCOCC1
O=Nc1ccc2oc(=O)ccc2c1
Cc1cccc(-n2c(Cn3nc(C)c([N+](=O)[O-])c3C)n[nH]c2=S)c1
CCc1ccc(N(C(=O)Cn2nnc(-c3ccccc3)n2)C(C(=O)NC2CCCCC2)c2ccccn2)cc1 (stereo unspecified)
CCOC(=O)CSc1ncc(-c2ccc([N+](=O)[O-])cc2)[nH]1
CCc1nnc(NC(=O)CCNC(=O)c2ccccc2Cl)s1
COc1cccc(/C=C(/C#N)c2ccc(F)cc2)c1OCc1cccc(C(=O)O)c1
N#Cc1ccccc1S(=O)(=O)c1ccccc1C(=O)Nc1ccccc1
CC(C)CC(NC(=O)COc1ccccc1)C(=O)O (stereo unspecified)
CCOC(=O)c1sc(NC(=O)CSc2n[nH]c(C)n2)nc1C
COc1cc2c(C(=O)N3CCN(Cc4ccc5c(c4)OCO5)CC3)cn(C)c(=O)c2cc1OC
CCC(=O)Nc1cc(-c2nn3c(C)nnc3s2)ccc1C

Potency, inconclusive:
c1ccc(-c2cc(-c3nnc4sc(-c5ccccn5)nn34)[nH]n2)cc1 28.2 µM [inhibitor, single point]
O=C1NC(=O)c2cc(Br)cc3cccc1c23 14.1 µM [inhibitor, single point]
COc1ccc(-n2c(=S)[nH]c3sc4c(c3c2=O)CCc2ccccc2-4)cc1 15.8 µM [inhibitor, partial curve]
O=C(NCc1ccccn1)c1ccc2c(=O)n(CCc3ccccc3)c(=O)[nH]c2c1 2.82 µM [inhibitor, single point]
O=C(O)c1cc(=O)c2c(Cl)cc(Cl)cc2[nH]1 10 µM [inhibitor, partial curve]
CCN1C(=C(C#N)C#N)C=Cc2cc(C)ccc21 25.1 µM [inhibitor, single point]
CCCn1c(N)c(C(=O)CSc2nc3ccccc3c(=O)n2Cc2ccccc2)c(=O)[nH]c1=O 28.2 µM [inhibitor, single point]
CC(=O)c1cc(C(c2csc(C(C)=O)c2)c2csc(C(C)=O)c2)cs1 28.2 µM [inhibitor, single point]
CCCCOc1ccc(C(=O)Nn2c(-c3cccs3)nc3ccccc3c2=O)cc1 28.2 µM [inhibitor, single point]
COc1ccccc1OCCNC(=O)c1cc([N+](=O)[O-])cc([N+](=O)[O-])c1 2.82 µM [inhibitor, full curve, poor fit]
COc1ccc(-c2nc3n(c(=O)c2C#N)CCCS3)cc1 12.6 µM [inhibitor, single point]
CCc1ccccc1NC(=O)CSc1nc2c(c(-c3ccco3)c1C#N)CCCC2 28.2 µM [inhibitor, single point]
COCCCN1C(=O)C(=O)/C(=C(/O)c2ccc(OCC(C)C)cc2)C1c1cccnc1 (stereo unspecified) 2 µM [inhibitor, full curve, poor fit]
C=CCn1c(SCC(=O)Nc2ccc(-c3nc4ccc(C)cc4s3)cc2)nnc1-c1ccccc1 17.8 µM [inhibitor, single point]
COc1ccc(-c2c(C#N)c(SCC(=O)c3cc4ccccc4oc3=O)nc(C)c2C(=O)Nc2ccccc2)cc1 14.1 µM [inhibitor, single point]
Cc1ccc(Cl)cc1-c1ccc(C=Nc2ccc(N3CCOCC3)cc2)o1 11.2 µM [inhibitor, partial curve]
COc1ccc2cc(-c3nc4ccccc4n3C)c(=O)oc2c1 11.2 µM [inhibitor, single point]
Cc1csc2ncc(C(=O)Nc3ccc4c(c3)OCCO4)c(=O)n12 22.4 µM [inhibitor, single point]
O=C(Cn1c(=S)[nH]c2ccccc2c1=O)NCCc1ccccc1 28.2 µM [inhibitor, single point]
COc1cccc(-c2nc(N3CCN(C)CC3)c3ccccc3n2)c1 14.1 µM [inhibitor, partial curve]
CC(C)NC(=O)CC(=O)NN=C1CCCCC1 10 µM [inhibitor, partial curve]
COc1cc(C(C)=O)ccc1Oc1ncnc2c1cnn2-c1ccc(F)cc1 28.2 µM [inhibitor, single point]
CC(=O)c1ccc(NC(=O)CSc2ccc(-c3ccc4c(c3)OCO4)nn2)cc1 14.1 µM [inhibitor, partial curve]
CCn1ncc(Br)c1C(=O)Nc1sc2c(c1C(N)=O)CCC2 28.2 µM [inhibitor, single point]
Cc1c(Cc2ccccc2)c(=O)oc2c(CN(C)C)c(O)c(Cl)cc12 11.2 µM [inhibitor, partial curve]
O=C(Nc1ccc(Cl)cc1)C1CC(=O)n2c(nc3ccccc32)N1 (stereo unspecified) 5.01 µM [inhibitor, single point]
CCN(CCO)c1ncnc2c1sc1nc(C(C)C)c3c(c12)CC(C)(C)OC3 22.4 µM [inhibitor, single point]
O=C(O)CC(NC(=O)OCc1ccccc1)c1ccccc1 (stereo unspecified) 2.24 µM [inhibitor, full curve]
O=c1c2cc(Cl)ccc2[nH]c(=S)n1Cc1cccs1 28.2 µM [inhibitor, single point]
C=CCn1c(SCC(=O)Nc2ccc(C(=O)OC(C)C)cc2)nnc1-c1cccs1 28.2 µM [inhibitor, single point]

Potency, active:
Cc1n[nH]c(=S)c2nn(-c3ccccc3)c(C)c12 14.1 µM
